Laboratory results as given in the supplement of paper PMC4967469.
Lines with a small IC50 respond at low doses; a limit (>, <) means that the fit lies beyond the doses tested. AUC is the area under the same curve over the 256-fold range up to the top dose, as a fraction; the more sensitive the line, the further below 1. For some assays here: Any top dose called inferred is not printed in the source and was worked back from the curve model.

How the values were obtained:
Test in all cases: Viability of human cancer cell lines after 72 h of drug (GDSC screen)
[1] = compound: Nc1ccccc1NC(=O)c1ccc(CNC(=O)OCc2cccnc2)cc1 [MS-275]; details: top dose 5 µM; top dose inferred
Protocol: (§1)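 Human cancer cell lines in 384-well plates, medium with 10% serum, drug for 72 h over a 256-fold dose range (nine 2-fold or five 4-fold steps up to the top dose). Adherent lines were fixed and stained with the nucleic acid dye Syto60, suspension lines read with resazurin; signal relative to control wells, capped at 0 and 100%. One two-parameter sigmoid per drug and line, fitted in a mixed model over all curves with the slope shared within a line.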

[2] = compound: O=C(NC(COc1ccc2[nH]c(=O)[nH]c2c1)c1ccccc1)c1cccn(Cc2ccc(F)c(F)c2)c1=O [KIN001-244]; details: top dose 20 µM; top dose inferred
Protocol: as §1

[3] = compound: CC(=O)Nc1cccc(-n2c(=O)n(C3CC3)c(=O)c3c(Nc4ccc(I)cc4F)n(C)c(=O)c(C)c32)c1 [Trametinib]; details: top dose 1 µM
Protocol: as §1

[4] = compound: CCc1cncnc1N1CCN(Cc2nc3ccc(C(F)(F)F)cc3[nH]2)CC1 [PF-4708671]; details: top dose 10 µM; top dose inferred
Protocol: as §1

[5] = compound: COc1cc2nccc(Oc3ccc(NC(=O)Nc4cc(C)on4)c(Cl)c3)c2cc1OC [AV-951]; details: top dose 0.128 µM; top dose inferred
Protocol: as §1

[6] = compound: CCN1CCN(Cc2ccc(NC(=O)c3ccc(C)c(/C=C/c4cnc5[nH]ccc5c4OC)c3)cc2C(F)(F)F)CC1 [HG-6-64-1]; details: top dose 5.12 µM; top dose inferred
Protocol: as §1

[7] = compound: CCNC(=O)C[C@@H]1N=C(c2ccc(Cl)cc2)c2cc(OC)ccc2-n2c(C)nnc21 [I-BET-762]; details: top dose 20 µM; top dose inferred
Protocol: as §1

| Cell Line | AUC [1] | IC50 [1] [nM] | AUC [2] | IC50 [2] [nM] | AUC [3] | IC50 [3] [nM] | AUC [4] | IC50 [4] [nM] | AUC [5] | IC50 [5] [nM] | AUC [6] | IC50 [6] [nM] | AUC [7] | IC50 [7] [nM] |
| --- | --- | --- | --- | --- | --- | --- | --- | --- | --- | --- | --- | --- | --- | --- |
| 697 (lymphoblastic leukaemia, suspension) | 0.305 | 101 | 0.291 | 370 | 0.959 | > 1000 | 0.939 | > 10000 | 0.984 | > 128 | 0.542 | 408 |  |  |
| A253 (head and neck, adherent) | 0.913 | > 5000 | 0.932 | > 20000 | 0.863 | 832 |  |  | 0.988 | > 128 | 0.598 | 588 | 0.989 | > 20000 |
| ALL-SIL (T-cell leukaemia, suspension) | 0.414 | 188 | 0.611 | 2410 | 0.913 | > 1000 |  |  | 0.62 | 16.2 | 0.047 | < 20 | 0.709 | 4400 |
| Becker (glioma, adherent) | 0.882 | > 5000 | 0.875 | > 20000 | 0.516 | 69.4 |  |  | 0.98 | > 128 | 0.397 | 161 | 0.948 | > 20000 |
| COLO-824 (breast, adherent) | 0.98 | > 5000 | 0.841 | 14300 | 0.949 | > 1000 |  |  | 0.986 | > 128 | 0.933 | > 5120 | 0.929 | > 20000 |
| CRO-AP2 (B-cell lymphoma, suspension) | 0.376 | 149 |  |  | 0.975 | > 1000 |  |  |  |  |  |  |  |  |
| DB (B-cell lymphoma, suspension) | 0.756 | 1910 | 0.85 | 18300 | 0.863 | > 1000 |  |  | 0.98 | > 128 | 0.705 | 1310 | 0.481 | 1100 |
| EHEB (lymphoid neoplasm, suspension) | 0.656 | 1030 |  |  | 0.854 | > 1000 | 0.973 | > 10000 |  |  | 0.635 | 895 |  |  |
| ES3 (Ewing sarcoma, adherent) | 0.945 | > 5000 | 0.835 | 14100 | 0.93 | > 1000 |  |  | 0.978 | > 128 | 0.815 | 3000 | 0.761 | 7430 |
| ES4 (Ewing sarcoma, adherent) | 0.651 | 876 | 0.778 | 9320 | 0.9 | > 1000 | 0.922 | > 10000 | 0.981 | > 128 | 0.706 | 1340 |  |  |
| EW-22 (Ewing sarcoma, adherent) | 0.922 | > 5000 |  |  | 0.973 | > 1000 | 0.941 | > 10000 |  |  |  |  |  |  |
| GA-10 (Burkitt lymphoma, suspension) | 0.204 | 50.4 |  |  | 0.981 | > 1000 | 0.982 | > 10000 |  |  | 0.315 | 107 |  |  |
| Hs-445 (Hodgkin lymphoma, suspension) | 0.762 | 1660 | 0.892 | > 20000 | 0.894 | > 1000 |  |  | 0.983 | > 128 | 0.744 | 1500 | 0.864 | 15300 |
| IM-9 (myeloma, suspension) | 0.985 | > 5000 |  |  | 0.585 | 103 | 0.912 | > 10000 |  |  | 0.955 | > 5120 |  |  |
| KARPAS-231 (B-cell leukaemia, suspension) | 0.392 | 169 |  |  | 0.993 | > 1000 | 0.979 | > 10000 | 0.926 | 125 | 0.335 | 126 |  |  |
| KASUMI-1 (acute myeloid leukaemia, suspension) | 0.985 | > 5000 |  |  | 0.315 | 19 | 0.95 | > 10000 | 0.347 | 3.01 | 0.306 | 91.3 |  |  |
| KCL-22 (chronic myeloid leukaemia, suspension) | 0.635 | 688 | 0.806 | 8240 | 0.704 | 209 |  |  | 0.883 | 99.1 | 0.175 | 42 | 0.723 | 4740 |
| KOPN-8 (B-cell leukaemia, suspension) | 0.554 | 429 | 0.747 | 5600 | 0.955 | > 1000 |  |  | 0.981 | > 128 | 0.763 | 1600 | 0.478 | 1100 |

| Cell Line | AUC [1] | IC50 [1] [nM] | AUC [2] | IC50 [2] [nM] | AUC [3] | IC50 [3] [nM] | AUC [4] | IC50 [4] [nM] | AUC [5] | IC50 [5] [nM] | AUC [6] | IC50 [6] [nM] | AUC [7] | IC50 [7] [nM] |
| --- | --- | --- | --- | --- | --- | --- | --- | --- | --- | --- | --- | --- | --- | --- |
| KP-N-YN (neuroblastoma, adherent) | 0.727 | 1490 | 0.968 | > 20000 | 0.895 | > 1000 |  |  | 0.986 | > 128 | 0.93 | > 5120 | 0.912 | > 20000 |
| L-363 (myeloma, suspension) | 0.608 | 591 | 0.9 | 19600 | 0.962 | > 1000 | 0.926 | > 10000 | 0.99 | > 128 | 0.951 | > 5120 |  |  |
| LB373-MEL-D (melanoma, adherent) | 0.81 | 2560 | 0.886 | > 20000 | 0.445 | 44.5 | 0.99 | > 10000 | 0.99 | > 128 |  |  | 0.987 | > 20000 |
| LOUCY (T-cell lymphoblastic leukaemia, suspension) | 0.624 | 639 | 0.809 | 8170 | 0.944 | > 1000 | 0.962 | > 10000 | 0.986 | > 128 | 0.956 | > 5120 |  |  |
| MFH-ino (soft tissue, adherent) | 0.802 | 2970 | 0.824 | 14800 | 0.461 | 48.2 |  |  | 0.983 | > 128 | 0.626 | 758 | 0.959 | > 20000 |
| MMAC-SF (melanoma, adherent) | 0.825 | 3160 | 0.986 | > 20000 | 0.067 | < 3.91 |  |  | 0.986 | > 128 | 0.72 | 1390 | 0.935 | > 20000 |
| MOLM-13 (acute myeloid leukaemia, suspension) | 0.501 | 315 | 0.479 | 1100 | 0.465 | 50.6 | 0.902 | > 10000 | 0.838 | 78.8 | 0.338 | 117 |  |  |
| MOLT-13 (T-cell lymphoblastic leukaemia, suspension) | 0.498 | 309 | 0.903 | > 20000 | 0.171 | 7.46 | 0.964 | > 10000 | 0.971 | > 128 |  |  | 0.464 | 1010 |
| NALM-6 (B-cell leukaemia, suspension) | 0.608 | 586 | 0.432 | 841 | 0.988 | > 1000 | 0.904 | 9570 | 0.99 | > 128 | 0.629 | 680 |  |  |
| NB17 (neuroblastoma, adherent) | 0.583 |  | 0.809 | 12400 | 0.98 | > 1000 |  |  | 0.964 | > 128 | 0.785 | 2550 | 0.945 | > 20000 |
| NCI-H526 (small cell lung carcinoma, suspension) | 0.617 | 645 | 0.895 | > 20000 | 0.985 | > 1000 | 0.965 | > 10000 | 0.989 | > 128 | 0.883 | 5060 |  |  |
| NEC8 (testis, adherent) | 0.373 | 148 | 0.835 | 10500 |  |  | 0.988 | > 10000 | 0.99 | > 128 | 0.907 | > 5120 | 0.512 | 1340 |
| NH-12 (neuroblastoma, adherent) | 0.981 | > 5000 | 0.82 | 13300 |  |  | 0.962 | > 10000 | 0.984 | > 128 | 0.845 | 4370 | 0.781 | 9380 |
| NOMO-1 (acute myeloid leukaemia, suspension) | 0.629 | 744 | 0.658 | 3670 |  |  | 0.982 | > 10000 | 0.98 | > 128 | 0.817 | 3370 | 0.471 | 1030 |
| NOS-1 (osteosarcoma, adherent) | 0.405 | 161 | 0.753 | 8110 |  |  | 0.716 | 2980 | 0.758 | 54.2 | 0.641 | 862 | 0.657 | 3780 |
| P31-FUJ (acute myeloid leukaemia, suspension) | 0.996 | > 5000 | 0.984 | > 20000 |  |  | 0.979 | > 10000 | 0.996 | > 128 | 0.996 | > 5120 | 0.987 | > 20000 |
| Raji (Burkitt lymphoma, suspension) | 0.91 | > 5000 | 0.854 | 14200 | 0.988 | > 1000 | 0.971 | > 10000 | 0.989 | > 128 | 0.923 | > 5120 |  |  |
| SUP-B15 (lymphoblastic leukaemia, suspension) | 0.631 | 708 | 0.325 | 417 |  |  | 0.942 | > 10000 | 0.857 | 97.4 | 0.236 | 57.4 | 0.641 | 3010 |
